According to PubChem BioAssay (NCI):
Where “and” joins values, the source holds several entries; their conditions need not be identical. Identical values can stand only once.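 A five-concentration, 48-hour dose response in 96-well plates underlies each endpoint, interpolated linearly between surrounding concentrations. At the GI50, growth is halved. TGI denotes the concentration required for complete inhibition of growth.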

Test system: NCI-H322M lung
Experiment: NCI tumour cell line growth inhibition, 48 h

Oc1ccc(CSc2nnc(-c3cnccn3)n2-c2ccccc2)c2cccnc12
GI50: 1.82 µM
TGI: > 100 µM

CCCCCc1ccc(S(=O)(=O)Nc2cccc(-c3csc(NC(=O)CCCCCN4CCN(C)CC4)n3)c2)cc1
GI50: 2.14 µM
TGI: 5.18 µM

COc1cc(O)c2c(c1)/C=C/C[C@H](O)[C@H](O)C(=O)/C=C\C[C@H](C)OC2=O
GI50: 6.65 µM and 15.3 µM
TGI: 27.3 µM and 64.7 µM

COc1cc(/C=N/n2cnc3oc(-c4ccccc4)cc3c2=N)cc(CN2CCCC2)c1O
GI50: 1.83 µM
TGI: 3.68 µM

CN(C)CCNC(=O)c1ccc(-c2nc3ccc4[nH]ncc4c3c3c2CCC3)cc1
GI50: 0.741 µM
TGI: 5.14 µM
